From ChEMBL document CHEMBL4888484, “Replenishing the malaria drug discovery pipeline: Screening and hit evaluation of the MMV Hit Generation Library 1 (HGL1) against asexual blood stage Plasmodium falciparum ,using a nano luciferase reporter read-out” (2022)
Screen size: about 150,000 compounds; about 540 (0.36%) showed an effect of 50% or more. Some of the results follow.

These compounds were tested on Plasmodium falciparum (assay: Primary screen in NF54 nanoGlo assay, in single point, at 2uM, 72h; a lower Z score goes with more inhibition). Conditions: timepoint 72 hour.
Type: functional, Erythrocyte

Row | SMILES | % Inhibition [%] | Z score
1 | CC(=O)N1CCc2cc(S(=O)(=O)N3CCC(CC(=O)Nc4cccc(C)c4C)CC3)ccc21 | -6 | 0.57
2 | CC(C)(C)OC(=O)N1CC2CCC1C(C(=O)O)C2 (configuration not stated) | 0 | -0.04
3 | Cn1ccc(C(=O)N2CCNC(=O)C[C@H]2c2ccccc2)cc1=O | -7 | 0.92
4 | CCc1cc(C(=O)N2CCN(CC(C)C)CC2)nc2cc(-c3ccccn3)nn12 | -10 | 1.35
5 | O=C(Cc1ccccc1F)Nc1cc(-c2ccsc2)no1 | -4 | 0.37
6 | Cn1nc(-c2nnc3n2CC(C)(C)CC3)c2ccccc2c1=O | -4 | 0.53
7 | CC(NC(=O)C(C)S(=O)(=O)C(C)C)c1ccc(OC(F)F)cc1 (configuration not stated) | -8 | 1.27
8 | Cn1nccc1NC(=O)N1CCCCCCC1 | -6 | 0.71
9 | CCn1cc(CC(=O)Nc2c[nH]nn2)cn1 | -5 | 0.59
10 | O=C(O)[C@@H]1CCCN1C(=O)C1Cc2ccccc2C1 | -5 | 0.81
11 | CCOC(=O)c1noc2nc(C)nc(NCc3ccc(F)cc3)c12 | -13 | 2.52
12 | C/C=C(\C)C(=O)N1CCN(c2nc3nccc(-c4cc(Cl)ccc4Cl)n3n2)CC1 | -14 | 2.25
13 | Cc1c(C(=O)N2CCC3(CC2)CNC(=O)C3)n(C)c2c(C)cccc12 | -1 | 0.16
14 | Cc1ccc(C(=O)N(CC2CC2)CC2CN(CC(O)COc3ccccc3C)CCO2)cc1 (configuration not stated) | -6 | 0.73
15 | COc1ccc(N2CCN(C(=O)CN3CCC(c4nc(C)no4)CC3)CC2)cc1 | 0 | 0.02
16 | CO[C@H]1[C@H](NC(=O)c2cccs2)c2ccccc2C12CCN(Cc1cccc3cccnc13)CC2 | 5 | -0.62
17 | Cc1nnsc1C(=O)Nc1cnc(-n2nc(C)c(C)c2C)nc1 | -2 | 0.38
18 | CCOC(=O)N1CCN(Cc2ccc(N(C)C)nc2)CC1 | -10 | 1
19 | CC1CC2CCCCC2N1C(=O)CCC1CCCO1 (configuration not stated) | 2 | -0.35
20 | CCCn1ncnc1CN1CCO[C@@H](CNc2nccn(C)c2=O)C1 | 1 | -0.09
21 | COCCC1(CNC(=O)N2CC[C@@H](C(F)(F)F)C(C)(C)C2)CCC1 | -15 | 2.86
22 | CC(C)CCc1csc(Cn2ccc(=O)[nH]c2=O)n1 | -13 | 1.36

Row | SMILES | % Inhibition [%] | Z score
23 | COc1ccc(CN2CCC3(CCCC3)C2)cc1F | -4 | 0.69
24 | CN(c1ccn(C)n1)S(=O)(=O)c1ccc(C(F)F)o1 | 8 | -1.36
25 | CC1CCC(OCC(=O)Nc2ccc3nncn3c2)CC1 (configuration not stated) | -37 | 4.33
26 | C[C@@H]1CN(C(=O)c2nc3sccn3c2CNCCC2=CC[C@H]3C[C@@H]2C3(C)C)C[C@H](C)O1 | 0 | -0.05
27 | Brc1cncc(NCc2nnc3n2CCCCC3)c1 | -16 | 2.1
28 | Cc1cc(=O)n(Cc2nc([C@H]3CCOC3)no2)nc1C | -7 | 1.06
29 | CN(Cc1ccoc1)C(=O)NC1CCCC1 | 4 | -0.73
30 | Cn1cccc1CCC(=O)NCCc1nccs1 | -9 | 1.19
31 | O=C(Nc1ccccc1C(=O)Nc1nnc(C2CC2)s1)c1ccc(Cl)cc1Cl | 0 | 0.02
32 | Nc1nc(C(=O)N[C@H]2CCCN(C3CCCC3)C2)cs1 | 11 | -2.01
33 | CCc1ccc(CNC(=O)c2ccc(-c3cccnc3)nc2)cc1 | -29 | 5.54
34 | C=CC1(CC(=O)N2CCN(S(=O)(=O)CC)C[C@H]2C)CCCCC1 | -9 | 1.15
35 | CCC(C)c1ccc(O[C@@H]2O[C@@H]3COC(c4ccccc4)O[C@H]3[C@H](O)[C@H]2NC(C)=O)cc1 (some centres not stated) | -7 | 1.06
36 | Cc1ccccc1S(=O)(=O)N1CCC2(CCC(=O)N(C(C)C)C2)CC1 | -14 | 2.02
37 | CCN(C)C(=O)CNc1ncc(F)cn1 | -14 | 1.17
38 | CCc1ccc(S(=O)(=O)N[C@@H](CC)c2nccs2)s1 | -8 | 1.17
39 | CCc1ccc(CN=C(N)N(C)C)s1 | 5 | -0.51
40 | O=C1[C@@H]2CCCN2C(=O)N1C1CCN(c2ccccc2)C1 (some centres not stated) | 6 | -0.99
41 | CC(=O)N1CCc2cc(S(=O)(=O)N3CCC(CC(=O)NCCc4ccccc4)CC3)ccc21 | -6 | 0.59
42 | CCC[C@]1(c2ccccc2)NC(=O)N(Cc2cc(=O)n(C)c(=O)n2C)C1=O | -14 | 1.61
43 | C[C@H](Oc1ccccc1)C(=O)N1CCC2(CC1)CC2(F)F | 19 | -2.35
44 | COc1ccc(-c2cnc3ncnn3c2N2CCN(S(=O)(=O)c3cccc(Cl)c3Cl)CC2)cc1OC | -18 | 1.79

Row | SMILES | % Inhibition [%] | Z score
45 | Cc1nc(C2=C(O)CN(c3ccc(N(C)C)cc3)C2=N)sc1C | 18 | -2.2
46 | O=C(N[C@H]1CCN(c2cnccn2)C[C@@H]1O)c1ccc2c(c1)OCO2 | 0 | 0.01
47 | CCCCn1ccnc1C1CCN(C(=O)N[C@H](C)c2ccc(F)cc2)CC1 | -12 | 1.16
48 | NC(=O)c1nc(CNC(=O)[C@H]2CCC[C@H](O)C2)no1 | -8 | 0.72
49 | CCN(CC)c1cc(-c2c(OC)cc(C)cc2OC)nc(N)n1 | 21 | -2.78
50 | Cc1cc2c(NC(=O)NCCN3CC[C@H](c4ccccc4)C3)cccc2nn1 | 10 | -1.76
51 | CC(=O)NC1CCC(N[C@H](C)c2cccc(O)c2)CC1 (some centres not stated) | 1 | -0.23
52 | N[C@@H]1CC[C@H](NC(=O)c2ccc(-c3ccc(F)cc3O)cc2)C1 | 10 | -1.39
53 | O=C1CCN(C(=O)C2(c3cccc(F)c3)CCCCC2)CCN1 | -4 | 0.69
54 | O=C1N(Cc2cccc(F)c2F)CCC[C@@]12CCN(CCOCCO)C2 | -8 | 0.93
55 | Cc1cc(N2CC[C@@]3(CCCN(CC4CCCCC4)C3=O)C2)nc2ccccc12 | 3 | -0.54
56 | COc1ccc(COCC(=O)NCc2cnoc2C)cc1 | -3 | 0.5
57 | CCN=C(NCc1cccc(C#N)c1)N[C@H]1CCCN(CCOC)C1 | 2 | -0.19
58 | Cc1ccccc1Cc1c(C)[nH]c2[nH]n(-c3ccccc3)c(=O)c2c1=O | 10 | -1.18
59 | COc1ccc(NC(=O)[C@@H]2CCCN2Cc2ccc(OC)nn2)cc1 | 2 | -0.23
60 | COc1cc2ncn([C@@H](C)c3cccnc3)c(=O)c2cc1OC | 3 | -0.51
61 | CCc1cnc(CNC(=O)c2ccc(C(C)(F)F)nc2)s1 | 1 | -0.07
62 | Cc1cc(C)cc(-n2ncc3c(=O)n(C[C@H](O)COc4ccc(F)cc4)cnc32)c1 | -9 | 1.46
63 | N[C@H]1CCCC[C@@H]1NC(=O)N[C@H]1C[C@H](c2ccccc2F)C1 | 0 | 0
64 | CC1CC(N2CCOC(Cn3cccn3)C2)C(=O)O1 (configuration not stated) | -8 | 1.29
65 | Cc1ccc(S(=O)(=O)N(c2cccc(C)c2)C2CCN(Cc3ccco3)CC2)cc1 | -8 | 1.04
66 | COc1cccc(Cc2nc(-c3nnn(Cc4ccc(F)cc4)c3C)no2)c1 | -17 | 3.43

Row | SMILES | % Inhibition [%] | Z score
67 | c1cc(-c2noc(CNc3nc(C4CC4)ns3)n2)ccn1 | -1 | 0.16
68 | O=C(CC1(CN2Cc3ccccc3C2=O)CCCCC1)N1CCCCCC1 | -5 | 0.63
69 | COc1ccc(NC2=NCCCC2)cc1 | -27 | 3.18
70 | CCCc1cc(OC(=O)c2ccccc2F)n(-c2cccc(F)c2)n1 | -7 | 0.74
71 | FC(F)(F)[C@@H]1CN(c2cc(N3CCOCC3)ncn2)CCO1 | -6 | 1.27
72 | O=C(Nc1ccc(Cl)c(C(F)(F)F)c1)C1=C(c2ccccc2)S(=O)(=O)CCO1 | 9 | -1.12
73 | O=C(Nc1cc(F)ccc1F)N1Cc2cccn2-c2ccccc21 | 6 | -0.76
74 | COCC1(C(=O)NC2(CO)CCCCC2)CCC1 | -20 | 1.89
75 | COC(=O)c1sc(N2CCCCCC2)nc1N | -2 | 0.21
76 | NC(=O)COCCNC(=O)C1=CCCCCC1 | -7 | 1.14
77 | C1CCC(c2noc(-c3onc4c3CCCC4)n2)CC1 | -3 | 0.41
78 | COc1ccc(-c2nn(CCNC(=O)Nc3ccc(Cl)c(Cl)c3)c(=O)n2C2CC2)cc1 | -7 | 1.36
79 | O=C(COc1ccc(Cl)cc1)NCc1ccnc(N2CCCC2)n1 | -17 | 3.15
80 | Cc1ccc(S(=O)(=O)Oc2ccc(C)cc2-n2nc3ccccc3n2)cc1 | -8 | 1.09
81 | O=C(C1CC=CCC1)N1CC2CC1CO2 (configuration not stated) | 2 | -0.33
82 | O=C(NCc1ccccc1)c1cc(-c2ccccc2Cl)nn1-c1cccc(Cl)c1 | -4 | 0.66
83 | Cc1cnc(C2CCC2)n1[C@H]1CCN(C(=O)COc2ccc(F)cc2)C1 | -17 | 2.18
84 | C[C@@H]1CC=CC[C@H]1C(=O)N[C@H]1CCS(=O)(=O)[C@H]1C | 1 | -0.16
85 | O=C(Nc1ncn(Cc2ccc(Cl)c(Cl)c2)n1)c1ccccc1Cl | 28 | -3.78
86 | C[C@@H](C1CC1)N(C(=O)c1cnc(-c2ccccc2)nc1)C1CC1 | 8 | -1.04
